Experimental data published in paper PMC4336329 (PLoS ONE, 2015).
Among all 310,000 compounds or so, about 14,000 (4.5%) showed an effect of 50% or more. The effect is printed as a negative number. This is one part of the list.

Target: human ether-à-go-go-related gene (hERG) potassium channel (human, UniProt Q12809)
Experiment: primary screen, population patch clamp on CHO cells stably expressing hERG
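Note: peak tail current of the secondary pulse compared with the same well before compound.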

Chain of human ether-à-go-go-related gene (hERG) potassium channel (Q12809 whole entry, looked up): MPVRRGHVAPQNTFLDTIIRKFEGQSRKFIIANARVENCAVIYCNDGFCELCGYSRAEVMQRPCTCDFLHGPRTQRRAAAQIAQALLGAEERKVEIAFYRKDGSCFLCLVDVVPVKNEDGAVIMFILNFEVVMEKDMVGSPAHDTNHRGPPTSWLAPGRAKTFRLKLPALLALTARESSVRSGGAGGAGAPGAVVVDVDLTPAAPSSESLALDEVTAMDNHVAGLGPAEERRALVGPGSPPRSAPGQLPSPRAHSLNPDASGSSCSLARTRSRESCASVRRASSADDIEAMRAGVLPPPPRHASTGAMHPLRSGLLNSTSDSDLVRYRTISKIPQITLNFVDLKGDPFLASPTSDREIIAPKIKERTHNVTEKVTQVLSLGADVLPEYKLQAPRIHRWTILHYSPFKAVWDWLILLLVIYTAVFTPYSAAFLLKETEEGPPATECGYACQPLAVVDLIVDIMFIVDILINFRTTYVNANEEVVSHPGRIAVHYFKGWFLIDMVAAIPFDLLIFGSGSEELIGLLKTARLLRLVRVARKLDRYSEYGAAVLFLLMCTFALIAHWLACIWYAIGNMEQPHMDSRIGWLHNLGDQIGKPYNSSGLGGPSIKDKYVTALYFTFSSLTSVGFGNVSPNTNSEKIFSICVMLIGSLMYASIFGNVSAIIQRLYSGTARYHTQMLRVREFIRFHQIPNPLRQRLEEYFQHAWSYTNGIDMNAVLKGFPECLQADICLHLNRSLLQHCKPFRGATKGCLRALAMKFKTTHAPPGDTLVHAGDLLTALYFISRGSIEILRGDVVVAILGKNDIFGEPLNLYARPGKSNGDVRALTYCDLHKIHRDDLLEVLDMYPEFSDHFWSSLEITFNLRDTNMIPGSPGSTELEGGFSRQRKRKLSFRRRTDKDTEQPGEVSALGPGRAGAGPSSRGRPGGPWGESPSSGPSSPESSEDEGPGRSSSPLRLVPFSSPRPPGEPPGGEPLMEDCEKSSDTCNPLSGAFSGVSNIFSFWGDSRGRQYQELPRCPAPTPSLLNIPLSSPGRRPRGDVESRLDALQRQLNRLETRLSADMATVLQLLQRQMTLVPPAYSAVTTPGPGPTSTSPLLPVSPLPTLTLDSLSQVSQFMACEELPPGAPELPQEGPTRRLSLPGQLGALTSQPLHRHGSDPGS

SMILES | hERG current change (%, negative = inhibition) at 10uM
COCCN(C(=O)Nc1ccccc1OC)c1nc2ccccc2s1 | 19.9%
CCn1c(=O)c2c(nc3n2CCCN3c2cccc(C)c2)n(C)c1=O | -3.56%
Cc1ccccc1OCC(=O)NNC(=O)CN1C(=O)c2ccccc2C1=O | -9.07%
CCCCCCNC(=O)c1ccc(Br)o1 | -3%
CC(C)CCNC(=O)C(=O)Nc1cc2c3c(c1)CC(=O)N3CCC2 | -27%
CCCCC(CC)CNC(=O)c1ncn[nH]1 (stereo not drawn) | 2.5%
Cl.NC(=O)c1c(NC(=O)c2c(F)cccc2F)sc2c1CCN(Cc1ccccc1)C2 | -17.7%
O=c1c2ccccc2nc(Cc2ccccc2)n1-c1ccc(O)cc1 | -23.9%
COC(=O)c1cn(NC(=O)Cc2cccc(C(F)(F)F)c2)c(=O)c2ccccc12 | 10.3%
CC(C)Cn1c(SCC(=O)NC2CCCc3ccccc32)nc(O)cc1=O (stereo not drawn) | 17%
Cc1ccc(CN(C)CC(=O)Nc2cccc([N+](=O)[O-])c2)o1 | -58.4%
CCC(C)C(=O)Nc1ccc(OC)cc1[N+](=O)[O-] (stereo not drawn) | 17.3%
O=C(CN1C(=O)C2C3C=CC(C3)C2C1=O)OCC(=O)c1ccc(Br)cc1 (stereo not drawn) | -15.1%
CCCCCCCCCCOC(=O)Cn1c(COc2ccccc2C)[n+](C)c2ccccc21.[Cl-] | -72.5%
CC1CN(c2nc3ccccc3nc2C(C#N)C(=O)OC2CCCCC2)CC(C)O1 (stereo not drawn) | -3.01%
CCOC(=O)c1c(-c2ccc(F)cc2)csc1NC(=O)CCN1C(=O)c2ccccc2C1=O | 16%
CC(C)NC(=O)CC(=O)N/N=C/c1c(F)cccc1Cl | -1.51%
Cn1cccc1C1NC(=O)c2c(sc3c2CCC(C(C)(C)C)C3)N1 (stereo not drawn) | 9.24%
COC(=O)c1cc(C(=O)OC)cc(N2C(=O)CC(NNC(=O)c3ccc(C)cc3)C2=O)c1 (stereo not drawn) | -11.5%

SMILES | hERG current change (%, negative = inhibition) at 10uM
Cc1nc2scc(-c3cccs3)c2c(=O)[nH]1 | 15.3%
O=C(CSc1n[nH]c(-c2cccnc2)n1)Nc1ccccc1 | -0.953%
Cc1cc(C)nc(NC(=S)NC(=O)c2ccccc2F)n1 | -28.1%
S=C1NCCc2ccc(Cl)cc2C1c1ccccc1 (stereo not drawn) | -38.4%
CCC(Oc1ccccc1)C(=O)Nc1ccc(S(=O)(=O)Nc2ncccn2)cc1 (stereo not drawn) | 17.3%
O=C(CSc1nnc(NC(=O)c2ccco2)s1)Nc1ccc(F)cc1 | 24.9%
O=C(c1cccc(F)c1)N1CCCC(C(=O)N2CCN(c3ccccc3)CC2)C1 (stereo not drawn) | -3.27%
Cc1cnc(NC(=O)CCN2C(=O)C3CCCCC3C2=O)s1 (stereo not drawn) | 24.3%
Cn1c(=NC(=O)c2cccc([N+](=O)[O-])c2)sc2ccccc21 | -4.18%
C1CCNCC1.N#CC1=C(N)Oc2cc(O)ccc2C1c1ccc2c(c1)OCO2 (stereo not drawn) | 2.47%
CCS(=O)(=O)Nc1ccc(C2=NN(C(=O)c3ccco3)C(c3cccc(F)c3)C2)cc1 (stereo not drawn) | -32.4%
O=C(CC(C(=O)N1CCc2ccccc21)n1ccnc1)NCC1CCCO1 (stereo not drawn) | 8.9%
O=C(CSc1ccc([N+](=O)[O-])cc1)NCC1CCCCC1 | -15%
O=C(NCCN1CCN(c2ccccc2Cl)CC1)Nc1ccccc1 | -34.1%
O=C1OC(C(=O)O)Cc2ccccc21 (stereo not drawn) | 5.21%
O=C(NCc1ccccc1)c1cc2ccc(O)cc2oc1=O | 25%
CCS(=O)(=O)C1=NSC2=NC(=O)/C(=C\c3ccc(OC(=O)c4ccco4)c(OC)c3)C(=N)N21 | 8.51%
O=C(C1CC1)N1CCc2cc(Br)cc(S(=O)(=O)NCc3ccc4c(c3)OCO4)c21 | -64.8%
Cl.O=[N+]([O-])c1ccc(CN2CCN(c3ccc4ccccc4n3)CC2)cc1 | -12.1%

SMILES | hERG current change (%, negative = inhibition) at 10uM
O=C(C[n+]1ccc(C(=O)NCc2ccccc2)cc1)c1ccc2c(c1)OCCO2.[Br-] | 12.9%
O=C(Nc1cccc(C(F)(F)F)c1)c1cc2c(s1)-c1ccccc1OC2 | -2.48%
CCOC(=O)CN1C(=O)CCSc2ccc(Cl)cc21 | 36.8%
COC(=O)c1ccc(N)c(CS(=O)(=O)c2ccc(Cl)cc2)c1 | -2.43%
Cc1ccc(C)c(OCCC(=O)OCC(=O)NCc2ccc(F)cc2)c1 | -14.4%
O=C(NCC1OCCc2ccccc21)c1ccc(NC(=O)c2cccc(Br)c2)cc1 (stereo not drawn) | 2.42%
Cc1[nH]c2ccc(C(=O)Nc3ccncc3)cc2c1C | -28.5%
O=C(COC(=O)CNS(=O)(=O)c1ccc(F)c(F)c1F)NC1CC1 | 11.3%
O=C(O)/C=C/C(=O)NCCc1ccccc1 | 61.4%
Cc1ccc([N+](=O)[O-])cc1S(=O)(=O)Nc1ccc(C(=O)NCC2CCCO2)cc1 (stereo not drawn) | -5.12%
CCCC(C)NC(=O)c1cc(Cl)ccc1OC (stereo not drawn) | -12.4%
CCOC(=O)c1ccc(NC(=O)c2nc[nH]c2C(=O)NCCCCNC(=O)c2[nH]cnc2C(=O)Nc2ccc(C(=O)OCC)cc2)cc1 | 22.9%
CC(C)CCNC(=O)c1cc2c(=O)[nH]c3ccccc3c2s1 | 21.7%
CS(=O)(=O)NCCCc1ccccc1 | 16.9%
Cc1cc(C)n2nc(C(=O)Nc3cccc(S(=O)(=O)N(C)c4ccccc4)c3)nc2n1 | -68.3%
Nc1ccn(Cc2ccc(F)cc2)n1 | 28.3%
O=C(NCCc1cccs1)C1CC1 | 5.61%
Cc1c(-c2cccc(Cl)c2)nc2ccccc2c1C(=O)NC1CC1 | -60.6%
O=C(CN1CCC(Cc2ccccc2)CC1)NC(=O)NCc1ccco1 | -22%
